In paper PMC4336329 (PLoS ONE, 2015):
In all, about 310,000 compounds went through this assay and about 14,000 (4.5%) showed an effect of 50% or more. The effect is printed as a negative number. The list shows a part of the results.

target: human ether-à-go-go-related gene (hERG) potassium channel (human, UniProt Q12809); experiment: primary screen, population patch clamp on CHO cells stably expressing hERG
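Also: peak tail current of the secondary pulse compared with the same well before compound.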

human ether-à-go-go-related gene (hERG) potassium channel, sequence (Q12809 whole entry, looked up): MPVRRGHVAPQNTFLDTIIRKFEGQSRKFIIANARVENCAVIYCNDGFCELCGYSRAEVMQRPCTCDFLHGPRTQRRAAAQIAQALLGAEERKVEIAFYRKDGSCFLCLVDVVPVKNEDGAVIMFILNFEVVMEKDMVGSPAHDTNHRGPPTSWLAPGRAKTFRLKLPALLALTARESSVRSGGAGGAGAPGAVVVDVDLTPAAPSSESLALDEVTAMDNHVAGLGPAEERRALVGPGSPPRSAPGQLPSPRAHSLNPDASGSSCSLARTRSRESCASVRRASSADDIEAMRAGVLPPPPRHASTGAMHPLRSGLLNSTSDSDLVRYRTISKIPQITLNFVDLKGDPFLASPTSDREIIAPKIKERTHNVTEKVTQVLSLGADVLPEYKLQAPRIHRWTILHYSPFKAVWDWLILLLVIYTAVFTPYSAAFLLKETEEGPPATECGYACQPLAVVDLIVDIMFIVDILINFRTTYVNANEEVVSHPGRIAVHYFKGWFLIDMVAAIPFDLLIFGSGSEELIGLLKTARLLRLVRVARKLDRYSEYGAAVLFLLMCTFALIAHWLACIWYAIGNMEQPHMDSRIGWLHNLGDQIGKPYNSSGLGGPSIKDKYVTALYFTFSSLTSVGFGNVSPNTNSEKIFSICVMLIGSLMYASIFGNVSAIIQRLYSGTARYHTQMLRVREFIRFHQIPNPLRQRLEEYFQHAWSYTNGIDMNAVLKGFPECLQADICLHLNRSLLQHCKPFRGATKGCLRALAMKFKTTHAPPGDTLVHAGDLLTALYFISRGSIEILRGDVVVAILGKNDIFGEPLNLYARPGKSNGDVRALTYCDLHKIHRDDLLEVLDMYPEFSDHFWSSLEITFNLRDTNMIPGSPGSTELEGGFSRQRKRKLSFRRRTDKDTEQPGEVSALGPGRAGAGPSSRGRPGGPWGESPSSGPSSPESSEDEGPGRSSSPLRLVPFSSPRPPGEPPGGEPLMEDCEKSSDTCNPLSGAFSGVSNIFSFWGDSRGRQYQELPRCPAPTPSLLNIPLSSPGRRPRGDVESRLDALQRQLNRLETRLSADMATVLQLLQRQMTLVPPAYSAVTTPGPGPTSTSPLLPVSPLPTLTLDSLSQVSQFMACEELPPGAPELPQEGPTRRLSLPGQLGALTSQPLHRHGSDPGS

| SMILES | hERG current change (%, negative = inhibition) at 10uM [%] |
| --- | --- |
| Cc1ccccc1N1CCN(Cc2ccc(Br)o2)CC1 | -13.7 |
| Cc1[nH]c2ccccc2c1C(=O)C(=O)N1CC=C(c2ccccc2)CC1 | -11.3 |
| COc1ccc(CN(C(=O)CN2C(=O)NC3(CCC(C)CC3)C2=O)C(C)Cc2cccs2)cc1 (stereo not drawn) | -68.7 |
| Cc1c(N/C(=N/S(=O)(=O)c2cc([N+](=O)[O-])ccc2Cl)c2ccccc2)c(=O)n(-c2ccccc2)n1C | -22 |
| Cc1ccc(C)c(N2CCN(C(=O)CCn3c(=S)[nH]c4cc5c(cc4c3=O)OCO5)CC2)c1 | 1.11 |
| COc1ccc(C(C)=O)cc1COC(=O)CNC(=O)c1ccc(F)cc1 | -4.66 |
| Cc1ccc(-n2c(CNc3ccc(F)cc3)nnc2SCC(=O)O)cc1 | 11.2 |
| CC1(C)CC(=O)C2=C(C1)N1CCCCC1CC2=O (stereo not drawn) | 8.13 |
| C[C@H](NC(=O)CCCn1nnc2ccccc2c1=O)C(=O)O | 5.74 |
| CCc1ccc2c(CN3CCc4ccccc43)cc(=O)oc2c1 | 5.25 |
| CCN1C(=O)/C(=C\N(C)C)NC1=S | 19 |
| Cn1c(=O)n(CC(=O)O)c(=O)c2c1nc1n2CCCN1CCc1ccccc1 | 13.6 |
| CC(C)N=C(NS(=O)(=O)NC(=O)c1ccccc1)c1ccccc1 | 2.42 |
| O=C(CN1c2ccccc2Sc2ccccc21)N/N=C/c1ccc(Cl)cc1 | -9.59 |
| N#Cc1ccc(NC(=O)CCc2nc3ccccc3s2)cc1 | 1.87 |
| COc1ccc(S(=O)(=O)NCCc2c[nH]c3ccccc23)cc1OC | 11.4 |
| CCOc1cccc(OCCOCCNC(C)(C)C)c1.O=C(O)C(=O)O | 3.71 |
| CC(C(c1cccs1)c1c(N)n(C)c(=O)n(C)c1=O)[N+](=O)[O-] (stereo not drawn) | 4.02 |
| CCOc1cc(N2CCOCC2)c(OCC)cc1NC(=O)COc1cccc2cccnc12 | 6.14 |
| CSc1nc2n(n1)C(c1cccc(F)c1)C(C(=O)Nc1ccc(C)cc1C)=C(C)N2 (stereo not drawn) | -0.769 |
| COc1ccc(S(=O)(=O)N(CC(=O)Nc2ccc3c(c2)OCO3)c2ccccc2OC)cc1 | 18.5 |
| COc1ccc(CCNC(=O)C2CC(c3ccc([N+](=O)[O-])cc3)=NO2)cc1 (stereo not drawn) | -61.6 |
| CC(=O)c1c(NCCc2ccccc2)cc(C)oc1=O | -18 |
| COc1ccc(C(=O)Nc2c3c(nn2-c2cccc(Cl)c2)CS(=O)C3)cc1 (stereo not drawn) | -25.6 |
